Experimental findings from publication PMC11876325 are described below.

Chains of the proteins cited; added tags and fusions are not shown.
UniProt P25454: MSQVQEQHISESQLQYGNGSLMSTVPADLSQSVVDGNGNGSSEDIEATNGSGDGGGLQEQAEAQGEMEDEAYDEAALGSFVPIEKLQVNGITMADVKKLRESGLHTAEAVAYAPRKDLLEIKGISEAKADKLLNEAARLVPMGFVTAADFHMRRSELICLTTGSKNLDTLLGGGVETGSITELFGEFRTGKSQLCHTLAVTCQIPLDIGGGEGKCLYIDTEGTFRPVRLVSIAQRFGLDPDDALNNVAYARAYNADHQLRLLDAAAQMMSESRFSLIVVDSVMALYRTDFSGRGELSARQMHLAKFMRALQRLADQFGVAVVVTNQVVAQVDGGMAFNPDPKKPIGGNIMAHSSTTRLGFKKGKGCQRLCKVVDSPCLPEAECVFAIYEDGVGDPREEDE
UniProt P29469: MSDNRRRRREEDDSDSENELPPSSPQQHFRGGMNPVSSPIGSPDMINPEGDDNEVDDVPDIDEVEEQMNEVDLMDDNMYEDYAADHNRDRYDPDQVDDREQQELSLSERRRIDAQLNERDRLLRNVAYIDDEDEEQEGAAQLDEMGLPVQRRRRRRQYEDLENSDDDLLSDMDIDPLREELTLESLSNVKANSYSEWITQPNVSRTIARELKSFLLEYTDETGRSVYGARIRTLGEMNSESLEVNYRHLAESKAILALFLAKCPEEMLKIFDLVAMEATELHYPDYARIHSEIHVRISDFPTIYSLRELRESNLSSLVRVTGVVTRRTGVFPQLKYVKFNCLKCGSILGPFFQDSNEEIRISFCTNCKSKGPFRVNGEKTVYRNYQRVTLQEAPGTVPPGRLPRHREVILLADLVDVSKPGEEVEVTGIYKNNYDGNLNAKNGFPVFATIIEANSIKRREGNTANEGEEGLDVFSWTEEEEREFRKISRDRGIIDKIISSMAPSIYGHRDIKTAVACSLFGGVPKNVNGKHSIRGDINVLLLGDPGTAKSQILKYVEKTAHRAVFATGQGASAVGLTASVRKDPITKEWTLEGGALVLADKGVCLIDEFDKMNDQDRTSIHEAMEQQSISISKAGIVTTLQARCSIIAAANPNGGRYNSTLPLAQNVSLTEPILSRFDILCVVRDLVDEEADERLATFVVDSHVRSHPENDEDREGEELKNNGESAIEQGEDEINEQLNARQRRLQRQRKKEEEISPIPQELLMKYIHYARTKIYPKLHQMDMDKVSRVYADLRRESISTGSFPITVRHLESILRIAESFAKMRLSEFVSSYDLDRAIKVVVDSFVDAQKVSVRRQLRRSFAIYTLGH

Assay [1] concerns the target T1, Rad55 (pGBD Rad55) (S. cerevisiae) (UniProt P38953).
T1 sequence: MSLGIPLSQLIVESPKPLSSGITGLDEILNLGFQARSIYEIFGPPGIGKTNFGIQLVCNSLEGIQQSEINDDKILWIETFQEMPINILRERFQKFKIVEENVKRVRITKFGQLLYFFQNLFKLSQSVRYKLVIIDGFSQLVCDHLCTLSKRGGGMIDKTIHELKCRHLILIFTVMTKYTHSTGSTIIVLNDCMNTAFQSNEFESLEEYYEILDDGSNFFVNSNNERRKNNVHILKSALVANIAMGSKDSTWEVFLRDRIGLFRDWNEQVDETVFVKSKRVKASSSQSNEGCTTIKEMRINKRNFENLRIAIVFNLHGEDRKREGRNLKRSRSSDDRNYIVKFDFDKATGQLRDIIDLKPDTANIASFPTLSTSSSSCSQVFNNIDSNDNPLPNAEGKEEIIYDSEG
In words: two-hybrid; GAL4 DNA-binding domain (pGBD) and GAL4 activation domain (pGAD) fusions co-transformed into PJ69-4α (also its rad51∆, rad55∆, csm2∆, shu1∆ and shu2∆ derivatives); growth on SC-L-W-H, 2-3 days, 30 °C.

Assay [2] addresses Rad51 (two-hybrid fusion) (S. cerevisiae) (UniProt P25454). The assay is described as above.
For assay [3], the target named is T2, Rad57 (pGBD Rad57) (S. cerevisiae) (UniProt P25301).
T2 sequence: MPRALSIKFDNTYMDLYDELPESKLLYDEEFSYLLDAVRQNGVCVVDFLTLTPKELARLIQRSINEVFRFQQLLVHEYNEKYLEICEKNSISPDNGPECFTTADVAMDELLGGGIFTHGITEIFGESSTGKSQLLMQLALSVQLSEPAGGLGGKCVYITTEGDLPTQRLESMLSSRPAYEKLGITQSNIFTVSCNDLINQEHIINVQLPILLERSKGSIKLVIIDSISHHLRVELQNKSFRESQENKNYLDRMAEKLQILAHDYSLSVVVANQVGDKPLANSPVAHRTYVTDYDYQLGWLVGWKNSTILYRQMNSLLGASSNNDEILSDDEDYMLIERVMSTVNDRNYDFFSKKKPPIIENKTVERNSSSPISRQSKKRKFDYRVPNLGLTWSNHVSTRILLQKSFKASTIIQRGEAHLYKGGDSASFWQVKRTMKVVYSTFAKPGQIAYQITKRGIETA
The description is as above.

Assay [4] has as its target T3, Psy3 (pGBD Psy3) (S. cerevisiae) (UniProt Q12318).
T3 sequence: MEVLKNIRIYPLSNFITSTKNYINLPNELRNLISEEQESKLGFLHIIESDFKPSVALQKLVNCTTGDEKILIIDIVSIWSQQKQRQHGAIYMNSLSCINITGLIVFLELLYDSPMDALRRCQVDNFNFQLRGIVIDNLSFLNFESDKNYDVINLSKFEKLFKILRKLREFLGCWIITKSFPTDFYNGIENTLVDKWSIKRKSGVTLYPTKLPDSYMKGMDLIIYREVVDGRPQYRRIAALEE
Described as above.

Assay [5] deals with T4, Psy3-6HA (S. cerevisiae) (UniProt Q12318).
T4 sequence: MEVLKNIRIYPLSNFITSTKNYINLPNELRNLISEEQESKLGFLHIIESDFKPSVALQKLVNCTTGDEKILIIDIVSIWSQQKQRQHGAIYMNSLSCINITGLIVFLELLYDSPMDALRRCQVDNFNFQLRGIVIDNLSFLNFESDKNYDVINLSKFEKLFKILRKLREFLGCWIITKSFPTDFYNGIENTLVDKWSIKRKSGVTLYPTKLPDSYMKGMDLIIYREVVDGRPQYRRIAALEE
In words: co-IP; 6HA-tagged protein precipitated from yeast lysate (NP-40 lysis buffer) on anti-HA magnetic beads overnight at 4 °C, washed with 50 mM Tris-HCl pH 7.5, 1 M NaCl, 1% NP-40; blot for endogenous Mcm4 or Orc2; cells arrested in G1 with α-factor or released into S or S/G2, with or without 0.03% …; with or without benzonase (25 U).

Assay [6] concerns the target T4, Psy3-6HA (S. cerevisiae). Nature of the assay: co-IP; as a3, but cells arrested in G2/M with nocodazole.
Assay [7] deals with T5, Csm2-6HA (S. cerevisiae) (UniProt P40465).
T5 sequence: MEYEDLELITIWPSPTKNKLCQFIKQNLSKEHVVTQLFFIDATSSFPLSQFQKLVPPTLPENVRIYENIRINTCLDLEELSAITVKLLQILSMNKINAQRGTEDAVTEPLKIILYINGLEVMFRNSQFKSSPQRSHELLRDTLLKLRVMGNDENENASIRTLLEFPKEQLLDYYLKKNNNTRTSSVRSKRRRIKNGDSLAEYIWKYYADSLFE
Nature of the assay: co-IP; 6HA-tagged protein precipitated from yeast lysate (NP-40 lysis buffer) on anti-HA magnetic beads overnight at 4 °C, washed with 50 mM Tris-HCl pH 7.5, 1 M NaCl, 1% NP-40; blot for endogenous Mcm4 or Orc2; cells arrested in G1 with α-factor or released into S or S/G2, with or without 0.03% …; with or without benzonase (25 U).

These are yes or no findings as the source states them, for the method shown. For some assays here: In cells and extracts the contact can be indirect. Some entries that bind do so weakly or less than the wild type.

As for “Mcm2 (pGAD Mcm2) (from UniProt P29469 1-868)”, the binding entry was “no binding” in assay [1], “no binding” in assay [2], “no binding” in assay [3] and “binds” in assay [4].

B1: Mcm4 (endogenous) (protein, UniProt P30665 1-933)
chain: MSQQSSSPTKEDNNSSSPVVPNPDSVPPQLSSPALFYSSSSSQGDIYGRNNSQNLSQGEGNIRAAIGSSPLNFPSSSQRQNSDVFQSQGRQGRIRSSASASGRSRYHSDLRSDRALPTSSSSLGRNGQNRVHMRRNDIHTSDLSSPRRIVDFDTRSGVNTLDTSSSSAPPSEASEPLRIIWGTNVSIQECTTNFRNFLMSFKYKFRKILDEREEFINNTTDEELYYIKQLNEMRELGTSNLNLDARNLLAYKQTEDLYHQLLNYPQEVISIMDQTIKDCMVSLIVDNNLDYDLDEIETKFYKVRPYNVGSCKGMRELNPNDIDKLINLKGLVLRSTPVIPDMKVAFFKCNVCDHTMAVEIDRGVIQEPARCERIDCNEPNSMSLIHNRCSFADKQVIKLQETPDFVPDGQTPHSISLCVYDELVDSCRAGDRIEVTGTFRSIPIRANSRQRVLKSLYKTYVDVVHVKKVSDKRLDVDTSTIEQELMQNKVDHNEVEEVRQITDQDLAKIREVAAREDLYSLLARSIAPSIYELEDVKKGILLQLFGGTNKTFTKGGRYRGDINILLCGDPSTSKSQILQYVHKITPRGVYTSGKGSSAVGLTAYITRDVDTKQLVLESGALVLSDGGVCCIDEFDKMSDSTRSVLHEVMEQQTISIAKAGIITTLNARSSILASANPIGSRYNPNLPVTENIDLPPPLLSRFDLVYLVLDKVDEKNDRELAKHLTNLYLEDKPEHISQDDVLPVEFLTMYISYAKEHIHPIITEAAKTELVRAYVGMRKMGDDSRSDEKRITATTRQLESMIRLAEAHAKMKLKNVVELEDVQEAVRLIRSAIKDYATDPKTGKIDMNLVQTGKSVIQRKLQEDLSREIMNVLKDQASDSMSFNELIKQINEHSQDRVESSDIQEALSRLQQEDKVIVLGEGVRRSVRLNNRV
With B1, the binding entry in assay [5] is listed as “binds”; in assay [6] it was “binds weakly”.

B2: Orc2 (endogenous) (protein, UniProt P32833 1-620)
chain: MLNGEDFVEHNDILSSPAKSRNVTPKRVDPHGERQLRRIHSSKKNLLERISLVGNERKNTSPDPALKPKTPSKAPRKRGRPRKIQEELTDRIKKDEKDTISSKKKRKLDKDTSGNVNEESKTSNNKQVMEKTGIKEKREREKIQVATTTYEDNVTPQTDDNFVSNSPEPPEPATPSKKSLTTNHDFTSPLKQIIMNNLKEYKDSTSPGKLTLSRNFTPTPVPKNKKLYQTSETKSASSFLDTFEGYFDQRKIVRTNAKSRHTMSMAPDVTREEFSLVSNFFNENFQKRPRQKLFEIQKKMFPQYWFELTQGFSLLFYGVGSKRNFLEEFAIDYLSPKIAYSQLAYENELQQNKPVNSIPCLILNGYNPSCNYRDVFKEITDLLVPAELTRSETKYWGNHVILQIQKMIDFYKNQPLDIKLILVVHNLDGPSIRKNTFQTMLSFLSVIRQIAIVASTDHIYAPLLWDNMKAQNYNFVFHDISNFEPSTVESTFQDVMKMGKSDTSSGAEGAKYVLQSLTVNSKKMYKLLIETQMQNMGNLSANTGPKRGTQRTGVELKLFNHLCAADFIASNEIALRSMLREFIEHKMANITKNNSGMEIIWVPYTYAELEKLLKTVLNTL
On to B2, for which the binding result in assay [5] and in assay [7] was “binds” each time.
